The list shows a part of the results.
Tests used:
Test in all cases: glycan array binding signal (z-score within array); higher = stronger binding
Settings in all cases: glycan notation: IUPAC condensed, linker removed
[1] = target: Gal(a1-3)Gal(b1-4)GlcNAc(b1-2)Man(a1-3)[Gal(a1-3)Gal(b1-4)GlcNAc(b1-2)Man(a1-6)]Man(b1-4)GlcNAc(b1-4)GlcNAc
How it was run: (§1)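 From the Consortium for Functional Glycomics database, 3228 arrays were curated, keeping only those whose protein sequence was available. Binding is given as a within-array Z-score averaged across arrays sharing a protein sequence and across linkers. Negative Z-scores can be read as non-binding.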

[2] = target: Gal(a1-3)Gal(b1-4)GlcNAc(b1-3)GalNAc
How it was run: as §1

[3] = target: Gal(a1-3)Gal(b1-4)GlcNAc(b1-6)GalNAc
How it was run: as §1

[4] = target: Gal(a1-3)Gal(b1-4)[Fuc(a1-3)]GlcNAc
How it was run: as §1

[5] = target: Gal(a1-3)Gal(b1-4)[Fuc(a1-3)]GlcNAc(b1-2)Man(a1-3)[Gal(a1-3)Gal(b1-4)[Fuc(a1-3)]GlcNAc(b1-2)Man(a1-6)]Man(b1-4)GlcNAc(b1-4)GlcNAc
How it was run: as §1

[6] = target: Gal(a1-3)GalNAc
How it was run: as §1

[7] = target: Gal(a1-3)[Gal(a1-4)]Gal(b1-4)GlcNAc
How it was run: as §1

[8] = target: Gal(a1-4)Gal(b1-3)GlcNAc(b1-2)Man(a1-3)[Gal(a1-4)Gal(b1-3)GlcNAc(b1-2)Man(a1-6)]Man(b1-4)GlcNAc(b1-4)GlcNAc
How it was run: as §1

[9] = target: Gal(a1-4)Gal(b1-4)Glc
How it was run: as §1

[10] = target: Gal(a1-4)Gal(b1-4)GlcNAc
How it was run: as §1

[11] = target: Gal(a1-4)Gal(b1-4)GlcNAc(b1-2)Man(a1-3)[Gal(a1-4)Gal(b1-4)GlcNAc(b1-2)Man(a1-6)]Man(b1-4)GlcNAc(b1-4)GlcNAc
How it was run: as §1

[12] = target: Gal(a1-4)Gal(b1-4)GlcNAc(b1-3)Gal(b1-4)Glc
How it was run: as §1

[13] = target: Gal(a1-4)GlcNAc
How it was run: as §1

[14] = target: Gal(a1-6)Glc
How it was run: as §1

[15] = target: Gal(b1-2)Gal
How it was run: as §1

[16] = target: Gal(b1-3)Gal
How it was run: as §1

[17] = target: Gal(b1-3)Gal(b1-4)GlcNAc
How it was run: as §1

[18] = target: Gal(b1-3)GalNAc
How it was run: as §1

[19] = target: Gal(b1-3)GalNAc(a1-3)[Fuc(a1-2)]Gal(b1-4)Glc
How it was run: as §1

[20] = target: Gal(b1-3)GalNAc(a1-3)[Fuc(a1-2)]Gal(b1-4)GlcNAc
How it was run: as §1

[21] = target: Gal(b1-3)GalNAc(b1-3)Gal
How it was run: as §1

[22] = target: Gal(b1-3)GalNAc(b1-3)Gal(a1-4)Gal(b1-4)Glc
How it was run: as §1

[23] = target: Gal(b1-3)GalNAc(b1-4)Gal(b1-4)Glc
How it was run: as §1

[24] = target: Gal(b1-3)GalNAc(b1-4)[Neu5Ac(a2-3)]Gal(b1-4)Glc
How it was run: as §1

[25] = target: Gal(b1-3)GlcNAc
How it was run: as §1

[26] = target: Gal(b1-3)GlcNAc(a1-3)Gal(b1-4)GlcNAc
How it was run: as §1

[27] = target: Gal(b1-3)GlcNAc(a1-6)Gal(b1-4)GlcNAc
How it was run: as §1

[28] = target: Gal(b1-3)GlcNAc(b1-2)Man
How it was run: as §1

[29] = target: Gal(b1-3)GlcNAc(b1-2)Man(a1-3)[Gal(b1-3)GlcNAc(b1-2)Man(a1-6)]Man(b1-4)GlcNAc(b1-4)GlcNAc
How it was run: as §1

[30] = target: Gal(b1-3)GlcNAc(b1-2)Man(a1-3)[Gal(b1-3)GlcNAc(b1-2)Man(a1-6)]Man(b1-4)GlcNAc(b1-4)[Fuc(a1-6)]GlcNAc
How it was run: as §1

[31] = target: Gal(b1-3)GlcNAc(b1-2)Man(a1-3)[GlcNAc(b1-4)][Gal(b1-3)GlcNAc(b1-2)Man(a1-6)]Man(b1-4)GlcNAc(b1-4)GlcNAc
How it was run: as §1

[32] = target: Gal(b1-3)GlcNAc(b1-2)[Gal(b1-3)GlcNAc(b1-6)]Man(a1-6)[Gal(b1-3)GlcNAc(b1-2)Man(a1-3)]Man(b1-4)GlcNAc(b1-4)GlcNAc
How it was run: as §1

[33] = target: Gal(b1-3)GlcNAc(b1-3)Gal(b1-3)GlcNAc
How it was run: as §1

[34] = target: Gal(b1-3)GlcNAc(b1-3)Gal(b1-4)Glc
How it was run: as §1

[35] = target: Gal(b1-3)GlcNAc(b1-3)Gal(b1-4)GlcNAc
How it was run: as §1

[36] = target: Gal(b1-3)GlcNAc(b1-3)Gal(b1-4)GlcNAc(b1-2)Man(a1-3)[Gal(b1-3)GlcNAc(b1-3)Gal(b1-4)GlcNAc(b1-2)Man(a1-6)]Man(b1-4)GlcNAc(b1-4)GlcNAc
How it was run: as §1

[37] = target: Gal(b1-3)GlcNAc(b1-3)Gal(b1-4)GlcNAc(b1-2)[Gal(b1-3)GlcNAc(b1-3)Gal(b1-4)GlcNAc(b1-6)]Man(a1-6)[Gal(b1-3)GlcNAc(b1-3)Gal(b1-4)GlcNAc(b1-2)Man(a1-3)]Man(b1-4)GlcNAc(b1-4)[Fuc(a1-6)]GlcNAc
How it was run: as §1

[38] = target: Gal(b1-3)GlcNAc(b1-3)Gal(b1-4)GlcNAc(b1-3)Gal(b1-4)GlcNAc(b1-2)[Gal(b1-3)GlcNAc(b1-3)Gal(b1-4)GlcNAc(b1-3)Gal(b1-4)GlcNAc(b1-6)]Man(a1-6)[Gal(b1-3)GlcNAc(b1-3)Gal(b1-4)GlcNAc(b1-3)Gal(b1-4)GlcNAc(b1-2)Man(a1-3)]Man(b1-4)GlcNAc(b1-4)[Fuc(a1-6)]GlcNAc
How it was run: as §1

[39] = target: Gal(b1-3)GlcNAc(b1-3)Gal(b1-4)GlcNAc(b1-6)[Gal(b1-3)GlcNAc(b1-3)]Gal(b1-4)Glc
How it was run: as §1

[40] = target: Gal(b1-3)GlcNAc(b1-3)Gal(b1-4)[Fuc(a1-3)]GlcNAc
How it was run: as §1

[41] = target: Gal(b1-3)GlcNAc(b1-3)Gal(b1-4)[Fuc(a1-3)]GlcNAc(b1-6)[Gal(b1-3)GlcNAc(b1-3)]Gal(b1-4)Glc
How it was run: as §1

[42] = target: Gal(b1-3)GlcNAc(b1-3)GalNAc
How it was run: as §1

[43] = target: Gal(b1-3)GlcNAc(b1-6)Gal(b1-4)GlcNAc
How it was run: as §1

[44] = target: Gal(b1-3)GlcNAc(b1-6)GalNAc
How it was run: as §1

[45] = target: Gal(b1-3)GlcNAc(b1-6)[Gal(b1-3)]GalNAc
How it was run: as §1

B1: F17-L (Escherichia coli) (protein)
chain: GPDDYVPSQIAVNTSTLPGVVIGPADAHTYPRVIGELAGTSNQYVFNGGAIALMRGKFTPALPKIGSITYTFHQGNSRDSSDFDIYDIGVSGLGIIIGMAGYWPATPLVPINSSGIYIDPVGANTNPNTYNGATASFGARLFVAFVATGRLPNGYITIPTRQLGTILLEAKRTSLNNKGLTAPVMLNGGRIQVQSQTHHHHHH
[1]
  glycan array binding signal (z-score): -0.148
[2]
  glycan array binding signal (z-score): -0.082
[3]
  glycan array binding signal (z-score): -0.123
[4]
  glycan array binding signal (z-score): -0.194
[5]
  glycan array binding signal (z-score): -0.105
[6]
  glycan array binding signal (z-score): -0.118
[7]
  glycan array binding signal (z-score): -0.073
[8]
  glycan array binding signal (z-score): -0.094
[9]
  glycan array binding signal (z-score): 0.59
[10]
  glycan array binding signal (z-score): 1.8
[11]
  glycan array binding signal (z-score): 22.9
[12]
  glycan array binding signal (z-score): 2.92
[13]
  glycan array binding signal (z-score): -0.118
[14]
  glycan array binding signal (z-score): -0.108
[15]
  glycan array binding signal (z-score): -0.01
[16]
  glycan array binding signal (z-score): -0.106
[17]
  glycan array binding signal (z-score): -0.138
[18]
  glycan array binding signal (z-score): -0.084
[19]
  glycan array binding signal (z-score): -0.163
[20]
  glycan array binding signal (z-score): -0.094
[21]
  glycan array binding signal (z-score): 0.019
[22]
  glycan array binding signal (z-score): -0.115
[23]
  glycan array binding signal (z-score): -0.093
[24]
  glycan array binding signal (z-score): -0.132
[25]
  glycan array binding signal (z-score): -0.102
[26]
  glycan array binding signal (z-score): -0.169
[27]
  glycan array binding signal (z-score): -0.128
[28]
  glycan array binding signal (z-score): -0.019
[29]
  glycan array binding signal (z-score): -0.036
[30]
  glycan array binding signal (z-score): -0.109
[31]
  glycan array binding signal (z-score): -0.109
[32]
  glycan array binding signal (z-score): -0.116
[33]
  glycan array binding signal (z-score): -0.152
[34]
  glycan array binding signal (z-score): 1.3
[35]
  glycan array binding signal (z-score): -0.165
[36]
  glycan array binding signal (z-score): 0.009
[37]
  glycan array binding signal (z-score): 0.062
[38]
  glycan array binding signal (z-score): 0.157
[39]
  glycan array binding signal (z-score): -0.133
[40]
  glycan array binding signal (z-score): -0.047
[41]
  glycan array binding signal (z-score): -0.188
[42]
  glycan array binding signal (z-score): -0.064
[43]
  glycan array binding signal (z-score): -0.099
[44]
  glycan array binding signal (z-score): -0.082
[45]
  glycan array binding signal (z-score): 0.25

— the supplement of paper PMC8728848
